This is an account of results in PubChem BioAssay AID463173 (ICCB-Longwood Screening Facility, Harvard Medical School, 2010).

Out of some 52,000 compounds screened, about 4,300 (8.3%) were called active. Cut-off read from the data, not from the text of the source: active = survival mostly below about 52% (no sharp cut-off); inactive = mostly above about 56%. The list shows a part of the results.

This assay relates to DeltatarO mutant. Nature of the assay: growth inhibition of S. aureus wild type versus tarO mutant, primary screen, teichoic acid synthesis inhibitors, RN4220, OD600 (AID 463173). The following applies: OD600, 18 h, stronger effect = lower value, screened at 18.75 µg/mL (by protocol).
Regarding `Cc1ccc(S(=O)(=O)N2CCc3cc(C(=O)Nc4c(C)cccc4C(C)C)ccc32)cc1`, the survival is inactive: 77%.

Turning to `COc1cccc(CC(=O)Nc2ccc3nc(Nc4cccc(C(F)(F)F)c4)cc(C)c3c2)c1`, the survival is active: 25%.

Turning to `COC(=O)c1cc2oc3ccccc3c2n1CC(=O)Nc1ccc(F)c(Cl)c1`, the survival was inactive: 60%.

For `CCOc1ccc(CCNC(=O)c2nn(C)c3c2CSc2ccc(C)cc2-3)cc1OCC`, the survival is inactive: 57%.

As to `Cc1cccc(Cn2c(CN3CCCC(C)C3)nc3c2c(=O)n(C)c(=O)n3C)c1` (stereo unspecified), the survival is inactive: 73%.

For `COc1cccc(CNC(=O)c2cc(=O)[nH]c3ccc(S(=O)(=O)N4CCCC4)cc23)c1`, the survival is inactive: 60%.

As for `CS(=O)(=O)N(CC(=O)N1CCCCC1)C1CCCCC1`, the survival was inactive: 85%.

Turning to `COc1ccc(CNC(=O)CC2Oc3ccc(C)cc3NC2=O)cc1` (stereo unspecified), the survival is inactive: 81%.

On to `CC1Cc2cc(S(=O)(=O)NCc3ccccc3)ccc2N1C(=O)C1CCC1` (stereo unspecified), for which the survival is inactive: 90%.

With `O=C(NCc1ccccc1)c1nc(-c2ccc(Cl)cc2)n2c1CCCCC2`, the survival is inactive: 99%.

On to `COCCCNC(=O)c1ccc(-n2c(-c3ccccc3)cc3c2CCCCC3)cc1`, for which the survival was active: 39%.

`O=C(CSc1nc2ccccc2n1CC(=O)N1CCCC1)N1CCCCC1`: the survival is inactive: 85%.

In the case of `Clc1ccc2nc(-c3cccs3)c(Nc3ccc4c(c3)OCCO4)n2c1`, the survival was inactive: 101%.

As to `CCOC(=O)c1cc(OC(=O)c2cc(OC)cc(OC)c2)n(-c2ccccc2)n1`, the survival is inactive: 62%.

Consider `CCc1nonc1NC(=O)c1oc2ccc(Cl)cc2c1C`, for which the survival was inactive: 74%.

Turning to `Cc1ccc(Cl)cc1NC(=O)Cn1c(SCC(=O)NCc2ccccc2)nc2ccccc21`, the survival is inactive: 96%.

Regarding `CCCCSc1nc(-c2cccc(OC)c2)nc2c1Cc1c(CO)cnc(C)c1O2`, the survival was inactive: 81%.

On to `O=C(CSc1nnc(-c2ccncc2)o1)Oc1ccccc1`, for which the survival is inactive: 82%.

Take `Cc1ccc(NC(=O)c2cnc3cc(C)ccn3c2=O)c(C)c1`: the survival is inactive: 98%.

`COc1ccc(-c2cc(C(=O)Nc3cc(C)nn3-c3ccccc3)no2)cc1OC`: the survival was inactive: 74%.

For `Cc1ccc2[nH]c(C)c(CN3CC(C)OC(C)C3)c(=O)c2c1` (stereo unspecified), the survival is inactive: 65%.

On to `COc1ccc(NC(=O)C2Cc3ccccc3CN2S(=O)(=O)c2ccccc2)cc1OC` (stereo unspecified), for which the survival was inactive: 94%.

`CCc1cccc(-n2c(=O)c3cccnc3n2CC(=O)Nc2ccc(OC)c(Cl)c2)c1`: the survival is inactive: 104%.

Turning to `CCc1ccccc1NC(=O)CCCn1c(=O)c2cccn2c2ccccc21`, the survival was inactive: 79%.

Regarding `COc1cccc(-n2c(SCC(N)=O)nc3c(oc4ccccc43)c2=O)c1`, the survival was inactive: 67%.

In the case of `Cc1cc(C)nc(Sc2ccccc2)n1`, the survival is inactive: 76%.

Turning to `CC1CCCCN1C(=O)CN1CCSc2ccccc21` (stereo unspecified), the survival is inactive: 74%.

Take `CCC(=O)Nc1ccc(CC)cc1-c1nc2ccccc2n(CC(=O)c2ccc(OC)cc2)c1=O`: the survival was inactive: 70%.

For the molecule `Cc1cc(/C=C(/C#N)C(=O)NCc2ccccc2)c(C)n1-c1cccnc1`, the survival is inactive: 56%.

As to `Cc1ccc(-c2cc(NC(=O)c3cccc(C)c3)on2)cc1`, the survival is inactive: 78%.

Take `Cc1c(Cl)cccc1NC(=O)c1oc2ccc(S(=O)(=O)N3CCC4(CC3)OCCO4)cc2c1C`: the survival was inactive: 107%.

On to `O=S(=O)(NCc1ccc(F)cc1)c1ccc2[nH]c3c(c2c1)CCCC3`, for which the survival was active: -1%.

In the case of `Cc1ccc(S(=O)(=O)N2CCc3cc(C(=O)Nc4ccc(Cl)cc4C)ccc32)cc1`, the survival was inactive: 63%.

Regarding `CCCc1nn2c(=O)cc(COC(=O)c3ccc(NC(=O)COc4ccccc4F)cc3)nc2s1`, the survival was inactive: 117%.

As for `O=C(CCCOc1ccccc1)Nc1ncn[nH]1`, the survival is inactive: 80%.

On to `CC1Cc2cc(S(=O)(=O)NCc3ccc(Cl)cc3)ccc2N1C(=O)C1CCC1` (stereo unspecified), for which the survival was inactive: 67%.

Consider `CSc1nc(-c2ccc(Cl)cc2)nn1S(=O)(=O)c1ccc(NC(C)=O)cc1`, for which the survival is active: 43%.

For `CC(C)c1ccc(N2C(=O)N(Cc3cccc([N+](=O)[O-])c3)c3ccccc3S2(=O)=O)cc1`, the survival is inactive: 94%.

`CCOc1ccc(NC(=O)[C@@H](c2ccccc2)N2Cc3ccccc3C2=O)cc1`: the survival is inactive: 70%.

As for `COc1ccc(NS(=O)(=O)c2ccc3c(c2)[C@H]2C=CC[C@H]2[C@@H](c2ccc(C(=O)O)cc2)N3)cc1`, the survival was inactive: 72%.

As to `Cc1noc(-c2ccc(-c3noc(-c4ccc([N+](=O)[O-])c(C)c4)n3)cc2)n1`, the survival is inactive: 54%.

With `Cc1cc(S(=O)(=O)Nc2ccc3oc4c(c3c2)CCCC4)ccc1Cl`, the survival was active: 41%.

In the case of `O=C1CN(C(=O)Cc2ccccc2)C(c2ccc(F)cc2)c2cc(Br)ccc2N1` (stereo unspecified), the survival was inactive: 61%.

Regarding `Cc1ccc(Cl)cc1N1CCN(C(=O)c2noc3c2CCCC3)CC1`, the survival was inactive: 71%.

As for `CC(=O)OCC1OC(OC(C)=O)C(NC(=O)C(C)C)C(OC(C)=O)C1OC(C)=O` (stereo unspecified), the survival is inactive: 108%.

Turning to `O=C(CSc1nnc(-c2ccccc2)o1)NC1CCCC1`, the survival was inactive: 89%.

Take `Cc1ccc(-n2nnnc2CNC(=O)C2CC(=O)N(c3ccccc3)C2)cc1C` (stereo unspecified): the survival was inactive: 72%.

As to `COc1ccc(Cl)cc1NC(=O)Cn1nnc2sc(-c3ccccc3)cc2c1=O`, the survival is inactive: 55%.

For the molecule `COc1cc(C2C(C(=O)Nc3ccccc3C)=C(C)Nc3nc(SCc4cc(C)ccc4C)nn32)ccc1O` (stereo unspecified), the survival is inactive: 105%.

Turning to `CCN(CC)c1ccc(NC(=O)CCc2c(C)nc3ncnn3c2C)c(C)c1`, the survival is inactive: 115%.

Turning to `Cc1cccn2c(=O)c(C(=O)N3CCN(c4ccc(Cl)cc4)CC3)cnc12`, the survival is inactive: 95%.

As to `O=S(=O)(NCCc1csc2nc(-c3ccccc3)nn12)c1ccc(Oc2ccccc2)cc1`, the survival was inactive: 64%.

Regarding `Cn1cc(S(=O)(=O)c2ccccc2)c(=O)c2cc(F)c(N3CCCC3)cc21`, the survival is inactive: 123%.

For the molecule `O=C(NCc1ccccc1)c1ccc(CSc2nc3cccnc3n2Cc2ccccc2)cc1`, the survival is inactive: 102%.

On to `CCc1cccc(C)c1NC(=O)c1cc2ccccc2o1`, for which the survival is inactive: 129%.

On to `COc1ccc(NC(=O)Cn2cc(S(=O)(=O)c3ccccc3)c(=O)c3cc(C)ccc32)cc1Cl`, for which the survival was inactive: 76%.

For the molecule `COc1cccc(N2CCN(C(=O)c3ccc4c(Cl)c5c(nc4c3)CCCC5)CC2)c1`, the survival is inactive: 88%.

As to `CCc1ccc(NC(=O)CSC2=Nc3ccccc3C3=NC(CC(=O)NCc4cccs4)C(=O)N23)cc1` (stereo unspecified), the survival is inactive: 99%.

On to `Cc1cc2c(cc3c(SCc4cccc(Cl)c4)nnc(C)n32)o1`, for which the survival was inactive: 56%.

As for `CCC(=O)N1CCc2cc(Br)cc(S(=O)(=O)N3CCC(C(=O)Nc4cccc(C)c4)CC3)c21`, the survival was inactive: 80%.

On to `COc1ccc(CCNC(=O)c2cc3c(=O)n4ccccc4nc3n2C)cc1`, for which the survival is inactive: 61%.

Consider `CCCN1CC=C2C(C#N)=C(N)C(C#N)(C#N)C(c3cccc(OC)c3)C2C1` (stereo unspecified), for which the survival is inactive: 95%.

On to `O=C(CSc1nnc2[nH]c(=O)cc(-c3ccccc3)n12)Nc1ccccc1C(F)(F)F`, for which the survival is inactive: 72%.

`Cc1cccc(NC(=O)Nc2ccc(C)c(C)c2)n1`: the survival is inactive: 96%.

With `Cc1cc(OCC(=O)Nc2ccc(C(=O)OC3CCCCC3)cc2)ccc1Cl`, the survival was inactive: 76%.

For the molecule `CNC(=O)c1cccc(-n2c(C)nc3cccnc32)c1C`, the survival was inactive: 81%.

As to `O=c1c2cccnc2n(Cc2ccc(Cl)cc2)c(=O)n1Cc1ccc(F)cc1`, the survival was inactive: 87%.

In the case of `CC(=O)c1ccc(NC(=O)CSc2nc3c(=O)n(C)c(=O)n(C)c3n2C)cc1`, the survival was inactive: 84%.

Regarding `O=c1[nH]c(C2CCN(S(=O)(=O)Cc3ccccc3)CC2)nc2c1nnn2Cc1cccc(Cl)c1`, the survival was inactive: 67%.

On to `Cc1cc(N2CCN(C)CC2)nc2ccc(NC(=O)c3ccccc3F)cc12`, for which the survival was inactive: 122%.

For the molecule `CCCC(=O)N1CCCC(c2nc(-c3ccc(C(C)C)cc3)no2)C1` (stereo unspecified), the survival was inactive: 103%.

Take `CC(=O)Nc1ccc(S(=O)(=O)N2CCN(c3ccc(C)c(C)c3)CC2)cc1`: the survival is inactive: 94%.

For the molecule `CC(C)NC(=O)c1ccc(Cl)cc1Cl`, the survival was inactive: 73%.

`Cc1cccc(Cn2c(CN3CCC(C(=O)NCc4ccccc4Cl)CC3)cc3ccccc32)c1`: the survival was inactive: 88%.

Regarding `O=C(O)CCSc1nc2ccccc2o1`, the survival is inactive: 87%.

In the case of `COc1ccc(Cn2c(CNS(=O)(=O)c3ccc(Cl)s3)nc3cccnc32)cc1`, the survival was inactive: 94%.

Consider `Cc1ccc(C(=O)Nc2cc(-c3nc4cc(Cl)ccc4o3)ccc2C)c(C)c1`, for which the survival was inactive: 85%.

For `C[N+]1=C(/C=C/Nc2ccccc2)SCC1`, the survival is inactive: 96%.

Consider `CCCN1C(=O)c2[nH]nc(-c3ccc(OC)cc3)c2C1c1ccccn1` (stereo unspecified), for which the survival was inactive: 47%.

With `CCOCCCNC(=O)C1CCN(c2nc3ccc(Cl)cc3[nH]2)CC1`, the survival was inactive: 83%.

`CNC(=O)C1CCC(Cn2c(=O)c3sccc3n(CC(=O)Nc3cc(C)cc(C)c3)c2=O)CC1` (stereo unspecified): the survival was inactive: 70%.

In the case of `COc1cccc(NC(=O)Cn2nc(-c3ccncc3)ccc2=O)c1`, the survival was inactive: 88%.

With `CCOc1ccc(NC(=O)C(=O)NCCc2sc(-c3ccc(C)cc3)nc2C)cc1`, the survival is inactive: 79%.

As to `CC(C)c1ccc(C(=O)CC2(O)C(=O)N(CCc3ccccc3)c3ccc(Cl)cc32)cc1` (stereo unspecified), the survival was active: 33%.

Take `O=C(c1c[nH]c2ccc(S(=O)(=O)Nc3ccccc3F)cc2c1=O)N1CCCCCC1`: the survival was inactive: 83%.

In the case of `COc1ccc(OC)c(NC(=O)C2CCN(S(=O)(=O)c3c(C)noc3/C=C/c3ccc(C)cc3)CC2)c1`, the survival was inactive: 71%.

As for `CC1CCCCN1CCCNC(=O)c1sc2ncccc2c1-n1cccc1` (stereo unspecified), the survival was active: 25%.

Consider `CCC(C)n1c(=N)c(C(=O)NCc2ccco2)cc2c(=O)n3cc(C)ccc3nc21` (stereo unspecified), for which the survival was inactive: 77%.

Turning to `CC(C)(O)C(=O)N=Nc1c(O)[nH]c2ccccc12`, the survival was inactive: 94%.

For `C/C(=N\N)c1ccc(OC(C)C)c(CN2CCOCC2)c1`, the survival was inactive: 91%.

On to `COc1cc(C2SCC(C(=O)O)N2C(C)=O)cc(Br)c1O` (stereo unspecified), for which the survival was inactive: 100%.
